From the supplement of paper PMC10126150 come the findings set out here.

In this data set the test system is ATP. The data set is described as follows: switch fluorescence ratio, 500 uM ATP over buffer (Cy3 cluster intensity, sum of 5 cycles each) (fold (ratio)); higher = stronger signal-on switching upon ATP binding; sequences stand for … in TCGTCGGCAGCGTCAGATGTGTATAAGAGACAGTTTTTTTTTTTTTTTTTTTTTTTTT…TC. The following applies: aptamer strand: ATP DNA aptamer (quencher-CACCTGGGGGAGTATTGCGGAGGAAGG + anchor), 100 nM annealed; ATP concentration: 500 uM; one replicate. The method in brief: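 Between each of five buffer/ATP cycles, the flow-cell was stripped with NaOH and re-annealed. Each cycle imaged Cy3-labelled switching-strand clusters, annealed to 100 nM quencher-labelled ATP aptamer on a modified Illumina MiSeq flow-cell, first in selection buffer and then after 15 min with 500 uM ATP at 22 °C. The fluorescence ratio is summed target-cycle over summed buffer-cycle Cy3 intensity per cluster, averaged per switch-domain sequence, with clusters outside 100-1000 RFU excluded.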

Sequences with one replicate were seen in a single cluster, so their values are uncertain.
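Further: ATP exposure 15 min at 22 °C before imaging.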

Turning to TAAGCTGGG, the switch fluorescence ratio worked out at 0.975.
The value for TTGCGATCCC was 1.08; that for GTCATGGGCC was 1.05; that for CATGGGTTAG was 1.01.
For ATTGCTCTAC the value was 1.09; for TGCTTGAGAG, 1.04.
For CGATGAATGG the value was 1.09; for TATACTCTGG, 1.01; for CCTGGCTTGG, 0.998.
On to ATGGAATTTT, for which the switch fluorescence ratio is 1.
Turning to GGTTCAGAAA, the switch fluorescence ratio worked out at 0.991.
Regarding GGGTAGAAGC, the switch fluorescence ratio came out at 0.985.
In the case of TCTGAACACG, the switch fluorescence ratio was found to be 0.999.
For CGGTAGGCCT the value was 1.01.
GACAAGGCAT: the switch fluorescence ratio is 1.03.
Consider ATAGTCGCTT, for which the switch fluorescence ratio turned out to be 0.99.
For CGTATGTCAT the value was 0.956; for TTTAGGCCTT, 1; for GCTTTGTAT, 0.978.
For CCAGATTTAT the value was 1.04; for GAGAGTCGT, 0.972.
On to AGCACGATCT, for which the switch fluorescence ratio turned out to be 1.05.
For ACTTTCGGAA the value was 1.15; for GGGTTACGAG, 1.15.
As for AAAGAGTGCC, the switch fluorescence ratio came out at 0.98.
Turning to GGTTTTGCGA, the switch fluorescence ratio stood at 1.01.
Turning to CACTTTTCAT, the switch fluorescence ratio was 1.04.
GGGAGATGTT: the switch fluorescence ratio turned out to be 1.01.
The value for GAACAGGAGC was 1.04; that for TGCAGTAGGG was 0.97.
Consider AGGGAATCAA, for which the switch fluorescence ratio came out at 0.989.
On to TGCACCACAC, for which the switch fluorescence ratio was 1.39.
The value for CCTTATTCGA was 1.01.
As to CCCCTGCGCC, the switch fluorescence ratio turned out to be 2.26.
Turning to CGCTTTAGTA, the switch fluorescence ratio is 1.
Take TCAGCCCGGT: the switch fluorescence ratio was determined as 1.06.
The value for CTTCCCTCGG was 1.27; that for CGTATCCCAA was 1.07; that for AGGTGGCTA was 1.
For CGCCTAAGGC the value was 1.05.
Regarding ATAGGTGAGT, the switch fluorescence ratio is 1.04.
TCTCTTGGAA: the switch fluorescence ratio stood at 1.
The value for TCCTGGTGTA was 1.19.
Turning to TCAAACCGGG, the switch fluorescence ratio is 1.
For TTCGTCTTT the value was 1.05; for GTATGTAATA, 0.961.
For TACACATTC the value was 1.03.
As for AGAAACTTTT, the switch fluorescence ratio worked out at 0.969.
For TATTATTG the value was 0.974; for TTTGTCCGCC, 1.17; for CGGGAGGGCG, 0.999.
The value for GACACGCTAA was 1.39.
With TCCTCTCCCG, the switch fluorescence ratio is 1.25.
The value for TACTTGCGAT was 1.26; that for AGATCAGTTT was 1.05; that for GGAATGCACT was 1.01.
Turning to GCGGTGTCTG, the switch fluorescence ratio came to 0.969.
Turning to CCCTTTGGTG, the switch fluorescence ratio was found to be 2.11.
For TACCTTTA, the switch fluorescence ratio was 1.06.
Turning to AGCACAAGGC, the switch fluorescence ratio was determined as 1.09.
On to ACGAGTAACA, for which the switch fluorescence ratio was 1.04.
Take ACGTACCGAA: the switch fluorescence ratio stood at 1.53.
The value for CTCTAGATTG was 1.09.
For TTCTAGGACC the value was 1.03.
Turning to TCCTACGATG, the switch fluorescence ratio is 1.97.
The value for CATGCCGGTG was 1.03.
Consider GAATTAAGTG, for which the switch fluorescence ratio is 0.96.
The value for TAGTGTTTAC was 1.01; that for TACCCTTAGT was 1.02.
As for ATATAGGTGT, the switch fluorescence ratio came to 1.07.
In the case of TTTAATTCTC, the switch fluorescence ratio was 0.994.
On to AGACCCAACG, for which the switch fluorescence ratio stood at 1.03.
Regarding ATTGCATGGG, the switch fluorescence ratio stood at 1.01.
Take TTGTGTTACT: the switch fluorescence ratio is 1.02.
Take TCGTGTGGGA: the switch fluorescence ratio was 1.03.
For ATTGGACAT the value was 0.939; for TCTGCGAGT, 1.04.
For AGGCATTAAG the value was 0.943; for GGCCAGAGTG, 0.997; for ATGCGTATAC, 2.46.
As for ATGATTATAC, the switch fluorescence ratio came out at 1.03.
CGATTGCGAA: the switch fluorescence ratio worked out at 0.987.
For the sequence GTCGAAGAGA, the switch fluorescence ratio worked out at 0.973.
As for CTCCAGGGAA, the switch fluorescence ratio is 1.18.
The value for CCTAAAAAC was 1.02.
GCGGGTTGCA: the switch fluorescence ratio amounted to 1.04.
The value for TGCGTTTACT was 1.52; that for TTCACCGGTG was 1.02.
The value for ACTGAGAGTT was 1.03; that for AGACAACAAC was 1.06.
For CTTCCCTAA the value was 1.06; for CGATAAAA, 0.993; for TAACACAGGC, 1.09.
For the sequence GGTAACTCTG, the switch fluorescence ratio came to 0.983.
For the sequence CGTCTGAG, the switch fluorescence ratio was 1.01.
As to TGGCCTAGCT, the switch fluorescence ratio amounted to 1.
For ACATCATATA, the switch fluorescence ratio is 1.07.
For TGTATGCACT the value was 1.7; for AGTAACCAGA, 0.984; for AGAGTAGTCC, 1.02.
Turning to TAGATTTGGT, the switch fluorescence ratio amounted to 1.05.
The value for TCACATAACT was 1.14; that for AGGCAGGAAT was 0.96; that for AGCTAACAGT was 1.02.
CTACATACAC: the switch fluorescence ratio is 1.29.
For GCTTGGGCGG the value was 1.04; for ACCTCGGTAC, 1.27.
The value for AGAATACGTC was 1.04; that for GGCAATACCG was 2.02; that for TACCTTTGAA was 1.05.
ATGTGTGG: the switch fluorescence ratio was found to be 1.01.
Consider GTGCGAAAGT, for which the switch fluorescence ratio turned out to be 1.02.
For CCTAGTGACA the value was 1.06; for TCGTAAAAAT, 1.08; for ACGGTTCTAC, 1.07.
Take TCAGAGGCGA: the switch fluorescence ratio worked out at 1.26.
The value for GGATCTGAGC was 0.991; that for ATTATGGGCC was 1.03; that for AGTTGGGAAT was 1.01.
With AGCATAATAG, the switch fluorescence ratio came to 1.24.
